In a collection of fitness landscapes (doi:10.1126/science.1257360):
This is one part of the list.

B1: PhoQ; a variant is named by its letters at X, in order, P23837 (parent)
chain: MKKLLRLFFPLSLRVRFLLATAAVVLVLSLAYGMVALIGYSVSFDKTTFRLLRGESNLFYTLAKWENNKLHVELPENIDKQSPTMTLIYDENGQLLWAQRDVPWLMKMIQPDWLKSNGFHEIEADVNDTSLLLSGDHSIQQQLQEVREDDDDAEMTHSVAVNVYPATSRMPKLTIVVVDTIPVELKSSYMVWSWFIYVLSANLLLVIPLLWVAAWWSLRPIEALAKEVRELEEHNRELLNPATTRELTSLVRNLNRLLKSERERYDKYRTTLTDLTHSLKTPLXXLQXXLRSLRSEKMSVSDAEPVMLEQISRISQQIGYYLHRASMRGGTLLSRELHPVAPLLDNLTSALNKVYQRKGVNISLDISPEISFVGEQNDFVEVMGNVLDNACKYCLEFVEISARQTDEHLYIVVEDDGPGIPLSKREVIFDRGQRVDTLRPGQGVGLAVAREITEQYEGKIVAGESMLGGARMEVIFGRQHSAPKDE

Variants of: B1
Experiment: enrichment ratio after two sorts for PhoP signalling (ratio (wild type AVST 3.29)); higher = more functional
Settings: with PhoP (E. coli)

Variant | enrichment ratio
SADQ | ≤ 0.25
EHPE | ≤ 0.25
FLVG | ≤ 0.25
VHYS | ≤ 0.25
LTLY | ≤ 0.25
SNLS | 11.5
KKNK | ≤ 0.25
NHCL | ≤ 0.25
EEIM | ≤ 0.25
WWAL | ≤ 0.25
PAFR | ≤ 0.25
APFF | ≤ 0.25
PPWT | ≤ 0.25
ETVN | ≤ 0.25
SVSF | 12.6
VYYV | ≤ 0.25
IHVI | ≤ 0.25
DVYQ | ≤ 0.25
KQKA | ≤ 0.25
DMTD | ≤ 0.25
FEVK | ≤ 0.25
FRDG | ≤ 0.25
QKIS | ≤ 0.25
TWFK | ≤ 0.25
GDFK | ≤ 0.25
DIKK | ≤ 0.25

Variant | enrichment ratio
WDLD | ≤ 0.25
SFME | ≤ 0.25
QRVS | ≤ 0.25
KMEL | ≤ 0.25
GFYP | ≤ 0.25
MSGQ | 14.3
MGCQ | 2.9
LEAM | 4.01
TVGA | 7.97
SENY | 0.524
RDIF | ≤ 0.25
EVEY | ≤ 0.25
QTPK | ≤ 0.25
YNDD | ≤ 0.25
LPYG | ≤ 0.25
KKLY | ≤ 0.25
SPIC | ≤ 0.25
FQVM | 3.44
PREP | ≤ 0.25
HNNH | ≤ 0.25
YSED | ≤ 0.25
AQMV | 3.92
MPSY | ≤ 0.25
RGAQ | ≤ 0.25
RYWM | ≤ 0.25
KVMW | ≤ 0.25

Variant | enrichment ratio
GPTN | ≤ 0.25
PCWP | ≤ 0.25
SILF | 0.295
QHCF | ≤ 0.25
DHWD | ≤ 0.25
LICR | ≤ 0.25
TLFH | ≤ 0.25
KCAQ | ≤ 0.25
AHLS | ≤ 0.25
WSHP | ≤ 0.25
DYAV | ≤ 0.25
QDWD | ≤ 0.25
YAFK | ≤ 0.25
EYTH | ≤ 0.25
LKAD | ≤ 0.25
AFCK | ≤ 0.25
PNPG | ≤ 0.25
ITDR | ≤ 0.25
MDDH | ≤ 0.25
HFMM | ≤ 0.25
FYLL | ≤ 0.25
TCNM | 1.24
KPPH | ≤ 0.25
IFRQ | ≤ 0.25
NFHD | ≤ 0.25
VGEI | ≤ 0.25

Variant | enrichment ratio
QEEF | ≤ 0.25
KIKC | ≤ 0.25
TWGH | ≤ 0.25
LSVC | ≤ 0.25
VGPD | ≤ 0.25
EGKD | ≤ 0.25
VRVF | ≤ 0.25
HSPA | ≤ 0.25
YYRL | ≤ 0.25
AWPI | ≤ 0.25
FKLE | ≤ 0.25
KPRC | ≤ 0.25
DTYF | ≤ 0.25
LETK | ≤ 0.25
VKYH | ≤ 0.25
VALY | 0.301
GMYD | ≤ 0.25
QELF | ≤ 0.25
MFIC | ≤ 0.25
GLAQ | ≤ 0.25
GEFY | ≤ 0.25
SGQN | ≤ 0.25
YFLE | ≤ 0.25
YTTF | ≤ 0.25
NYLP | ≤ 0.25
QTSA | ≤ 0.25

Variant | enrichment ratio
FTFQ | 1.72
KFVE | ≤ 0.25
TTDT | ≤ 0.25
SHNG | ≤ 0.25
NHAD | ≤ 0.25
FMQQ | ≤ 0.25
PEQL | ≤ 0.25
DCNF | ≤ 0.25
HQYI | ≤ 0.25
RDML | ≤ 0.25
IKAC | ≤ 0.25
HATG | ≤ 0.25
HGMY | ≤ 0.25
HWAP | ≤ 0.25
EQDY | ≤ 0.25
RFYG | ≤ 0.25
HTGK | ≤ 0.25
KNTP | ≤ 0.25
ELCS | ≤ 0.25
KNIG | ≤ 0.25
MGLY | 2.79
YGRF | ≤ 0.25
IKGR | ≤ 0.25
PCQS | ≤ 0.25
PGYI | ≤ 0.25
FKQN | ≤ 0.25

Variant | enrichment ratio
VIKH | ≤ 0.25
MGRL | ≤ 0.25
HGWQ | ≤ 0.25
FMPW | ≤ 0.25
DIFP | ≤ 0.25
QVHS | ≤ 0.25
GVCK | 1.77
TTPY | ≤ 0.25
YAQY | ≤ 0.25
AWPK | ≤ 0.25
TREN | ≤ 0.25
WPRW | ≤ 0.25
YWHS | ≤ 0.25
PVQI | ≤ 0.25
IKRV | ≤ 0.25
VAYI | ≤ 0.25
DGNW | ≤ 0.25
FSSN | ≤ 0.25
IEFY | ≤ 0.25
WYTM | ≤ 0.25
KRSM | ≤ 0.25
YGAA | ≤ 0.25
LFIY | ≤ 0.25
